Test results: patent US20120197004A1, “NOVEL ANTI-MICROBIAL PEPTIDOMIMETIC COMPOUNDS AND METHODS TO CALCULATE ANTI-MICROBIAL ACTIVITY” (priority 2006, published 2012)

Assay: Maximum tolerated dose in mouse model
Type: in vivo
Details: IP, dosed daily day 1-6
Protocol: Maximum Tolerated Dose: Six compounds were evaluated in an in vivo mouse model to determine the maximum tolerated dose for each compound by BIOCON, Inc. using the following protocol. For each compound 3 dose concentrations (1/5/25 mg/kg or 5/25/125 mg/kg) were administered IP, 1-2 times per day as split doses. Day 0 weigh the animals, day 1-6 dose daily and observe animals, day 7 weigh, euthanasia followed by necrotize to examine abdominal cavity.

CC(=O)NCC(=O)N[C@@H](Cc1ccccc1)C(=O)N1Cc2ccccc2CC1C(=O)N1C(C(=O)NCC(=O)N[C@@H](CCCCN)C(=O)N2Cc3ccccc3CC2C(=O)N2C(C(=O)NCC(=O)N[C@@H](Cc3ccccc3)C(=O)N3Cc4ccccc4CC3C(=O)N3C(C(=O)NCC(=O)N[C@@H](CCCCN)C(=O)N4Cc5ccccc5CC4C(=O)N[C@@H](CCCCN)C(=O)N[C@@H](CCCCN)C(=O)N[C@@H](CCCCN)C(=O)N[C@@H](CCCCN)C(N)=O)CC4CCCCC43)CC3CCCCC32)CC2CCCCC21 (stereo partly drawn) [FKAB-1G, Ac-GF-Tic-Oic-GK-Tic-Oic-GF-Tic-Oic-GK-Tic-KKKK-CONH2] (Ac-GF[ξTic][ξOic]GK[ξTic][ξOic]GF[ξTic][ξOic]GK[ξTic]KKKK-NH2)
Maximum Tolerated Dose/Toxicity 125 mg/kg: all animals lost weight and one animal died

Where a SMILES comes first, the peptide text is derived from it. [ ]: non-standard residue; d: D form. ξ: configuration not given here. ξTic = O=C(O)C1Cc2ccccc2CN1; ξOic = O=C(O)C1CC2CCCCC2N1
